# According to PubChem BioAssay AID504332 (National Center for Advancing Translational Sciences (NCATS), 2011):
# Where “and” joins values, the source holds several entries; their conditions need not be identical. Equal values may be shown once. The whole screen tested about 350,000 compounds, of which about 31,000 (8.9%) were called active. The shares of active, inactive and inconclusive entries below differ from those in the screen. Calls come from the whole dose curve; as a rule, active = well fitted inhibition curve with a large enough effect; inconclusive = small, poorly fitted or top-dose-only effect; inactive = no such curve, though single readings can be large or run the other way. Potencies of inconclusive entries are doubtful fits and often do not repeat. More than one record can exist for a structure, and the calls need not agree.
# Target: Histone-lysine N-methyltransferase EHMT2 (Homo sapiens) (UniProt Q96KQ7)
# Test: qHTS Assay for Inhibitors of Histone Lysine Methyltransferase G9a; note: nearly all actives have a fitted effect of over 75% in size
# Conditions: G9a H3K9 monomethylation, AlphaScreen, 2 h; activity, negative = inhibition: at 59 µM (top of the series) unless noted
# Summary of the method: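 Using a bead-based AlphaScreen, monomethylated H3K9 product from 2 h room-temperature reactions (G9a 20 nM, peptide 500 nM, SAM 20 uM) was detected with 0.5 ug/mL rabbit anti-H3K9me1 antibody.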
# % is set by controls: 0 for no effect and ±100 for the full control effect; potency is the fitted concentration of half-maximal effect; tags give direction and shape of the fitted curve.
# Chain of UniProt Q96KQ7 (Q96KQ7 whole entry, looked up): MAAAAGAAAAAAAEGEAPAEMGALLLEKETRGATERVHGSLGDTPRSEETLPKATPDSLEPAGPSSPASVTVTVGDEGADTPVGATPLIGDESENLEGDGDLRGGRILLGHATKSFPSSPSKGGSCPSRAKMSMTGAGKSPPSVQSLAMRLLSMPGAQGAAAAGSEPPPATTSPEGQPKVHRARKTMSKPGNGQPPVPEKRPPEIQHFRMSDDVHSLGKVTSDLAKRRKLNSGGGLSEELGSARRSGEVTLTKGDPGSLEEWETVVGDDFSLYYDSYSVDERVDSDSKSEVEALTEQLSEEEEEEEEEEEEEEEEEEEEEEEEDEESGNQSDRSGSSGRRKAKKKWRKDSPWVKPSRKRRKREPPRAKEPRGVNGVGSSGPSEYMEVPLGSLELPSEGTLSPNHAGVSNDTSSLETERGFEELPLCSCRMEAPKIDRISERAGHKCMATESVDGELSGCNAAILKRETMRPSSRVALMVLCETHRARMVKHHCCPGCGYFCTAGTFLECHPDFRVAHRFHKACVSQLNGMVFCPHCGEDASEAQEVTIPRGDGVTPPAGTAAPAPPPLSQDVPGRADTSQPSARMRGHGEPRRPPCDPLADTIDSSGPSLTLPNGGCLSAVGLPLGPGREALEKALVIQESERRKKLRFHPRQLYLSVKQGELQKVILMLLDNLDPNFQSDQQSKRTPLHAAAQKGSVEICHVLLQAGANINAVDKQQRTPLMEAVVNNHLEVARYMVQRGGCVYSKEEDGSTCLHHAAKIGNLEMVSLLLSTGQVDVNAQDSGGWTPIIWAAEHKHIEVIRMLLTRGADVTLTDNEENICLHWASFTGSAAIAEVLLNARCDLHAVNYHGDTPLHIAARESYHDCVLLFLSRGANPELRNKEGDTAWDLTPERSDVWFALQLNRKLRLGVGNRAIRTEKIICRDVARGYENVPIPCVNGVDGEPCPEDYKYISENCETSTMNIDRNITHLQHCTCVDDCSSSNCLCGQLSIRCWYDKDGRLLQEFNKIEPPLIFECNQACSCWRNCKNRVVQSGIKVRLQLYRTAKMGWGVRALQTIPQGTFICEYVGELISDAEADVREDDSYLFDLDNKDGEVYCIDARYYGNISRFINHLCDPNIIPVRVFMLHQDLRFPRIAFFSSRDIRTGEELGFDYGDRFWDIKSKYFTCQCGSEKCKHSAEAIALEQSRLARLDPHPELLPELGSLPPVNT
Structure (SMILES),Potency,"activity, negative = inhibition"
COc1cc(C(=S)N2CCOCC2)cc(OC)c1OC(=O)c1cccc(C)c1,"inconclusive: 89.1 µM [inhibitor, single point]",
Cc1c(Cc2ccccc2)c(=O)oc2cc(OCc3nn[nH]n3)ccc12,"inconclusive: 79.4 µM [inhibitor, single point]",
CC(=O)C1(C)N(O)C(C)(C)C(c2ccco2)=[N+]1[O-] (stereo not given),"inconclusive: 39.8 µM [inhibitor, single point]",
O=C(N/N=C/c1cccc(Br)c1)c1ccc(Br)cc1,"inconclusive: 89.1 µM [inhibitor, partial curve, poor fit]",
CC(C)Cc1nnc(NC(=O)CCC(=O)N2CCN(c3ccccn3)CC2)s1,"inconclusive: 70.8 µM [inhibitor, single point]",
O=C(O)CCCn1cc(NC(=O)COc2ccc(F)cc2F)cn1,inactive,
O=S1(=O)CCC(N=Nc2c(O)n(Cc3ccccc3)c3ccccc23)C1 (stereo not given),"inconclusive: 50.1 µM [inhibitor, partial curve, poor fit]",
COC(=O)C1CC23C=CCN4CCC5(c6ccccc6NC15C2C)C43 (stereo not given),active: 39.8 µM,
CC1(C)CC(O)CC(C)(C)N1CC(O)COCc1ccccc1 (stereo not given),inactive,
O=C1CC(NCc2ccncc2)C(=O)N1c1ccc(Cl)cc1 (stereo not given),,inconclusive: -58.1% [inhibitor]
Clc1ccccc1CSc1nnc(-c2cccnc2)n1Cc1ccco1,"inconclusive: 50.1 µM [inhibitor, partial curve, poor fit]",
Cc1ccc(-c2nc(CSCC(=O)N3CCN(C(=O)c4ccco4)CC3)c(C)o2)cc1,"inconclusive: 89.1 µM [inhibitor, single point]",
CCOC(=O)C1CCN(C(=O)c2ccccc2NS(=O)(=O)c2ccc(F)c(F)c2)CC1,"inconclusive: 89.1 µM [inhibitor, single point]",
O=C(Cc1ccc(S(=O)(=O)N2CCOCC2)s1)NCCC(c1ccccc1)c1ccccc1,"inconclusive: 39.8 µM [inhibitor, partial curve, poor fit]",
O=C(NCc1n[nH]c(=S)n1-c1cccc(C(F)(F)F)c1)c1ccc(S(=O)(=O)N2CCCCC2)cc1,active: 8.91 µM,
CC(C)/C(=N\NS(=O)(=O)c1ccc(Br)cc1)c1cccs1,"inconclusive: 44.7 µM [inhibitor, partial curve, poor fit]",
COc1ccc2c(=O)c(C)c(-c3ccccc3)oc2c1CN(C)C,,inconclusive: -56.3% [inhibitor] [at 2.33 µM]
Oc1ccccc1/C=N/NC(=S)NC1CC2C=CC1C2 (stereo not given),"inconclusive: 15.8 µM [inhibitor, full curve]",
CCc1nc2oc3ccccc3c(=O)c2c(=O)n1-c1ccc(C)cc1,active: 50.1 µM,
CCn1c(=O)c2c(nc3n2CCCN3CCc2ccccc2)n(C)c1=O,"inconclusive: 0.631 µM [inhibitor, partial curve, poor fit]",
COc1cc(OC)cc(C(=O)N2CCN(C(=O)c3ccc(-c4ccccc4)cc3)CC2)c1,"inconclusive: 7.08 µM [inhibitor, partial curve, poor fit]",
CCCC(C(=O)NCc1ccco1)N(C(=O)CNS(=O)(=O)c1ccccc1)C1CCCC1 (stereo not given),"inconclusive: 20 µM [inhibitor, single point]",
O=C(c1ccc2[nH]ccc2c1)N1CCCC(Nc2ccccc2)C1 (stereo not given),inactive,
CCSc1nc2ccccc2n1S(=O)(=O)c1ccccc1,active: 50.1 µM,

Structure (SMILES),Potency,"activity, negative = inhibition"
O=C(CSc1n[nH]c(-c2cccs2)n1)NCCc1ccccc1,"inconclusive: 89.1 µM [inhibitor, single point]",
COC(=O)C1(C)NCCc2c1[nH]c1ccccc21 (stereo not given),,inactive: 13.6% [at 12.7 µM]
COc1ccc(OC)c(NC(=O)c2nc(S(=O)(=O)Cc3ccccc3)ncc2Cl)c1,active: 35.5 µM,
CN(CC(=O)Nc1ccccc1C(F)(F)F)C(=O)c1cccc(-n2cccc2)c1,"inconclusive: 56.2 µM [inhibitor, partial curve, poor fit]",
O=C(CN1CCN(C(=O)C2CCCO2)CC1)Nc1ccc(F)cc1 (stereo not given),inactive,
C[C@@H]1C=C(C(=O)NCc2ccccc2)O[C@H](OCc2ccc(CO)cc2)C1,,inconclusive: -69.9% [inhibitor]
Cc1ccc(S(=O)(=O)N2CCN(C(C(=O)Nc3ccc(F)cc3)c3ccccc3)CC2)cc1 (stereo not given),inactive,
O=C(CNCc1cccs1)Nc1ccc(N2CCCCCC2)cc1,active: 8.91 µM,
O=C(Cc1ccc(Cl)cc1)Nc1ccc(N2CCCC2)cc1,"inconclusive: 56.2 µM [inhibitor, partial curve, poor fit]",
CC1=NN(c2ccc(C)c(C)c2)C(=O)/C1=C\C=C\c1ccc([N+](=O)[O-])o1,"inconclusive: 17.8 µM [inhibitor, partial curve, poor fit]",
CC(C)(C)c1ccc(C2(C)NC(=O)N(CC(=O)Nc3ccc4c(c3)OCO4)C2=O)cc1 (stereo not given),inactive,
c1ccc(CNC2=NCCCC2)cc1,active: 14.1 µM,
CN(C)c1cccc(NC(=O)c2ccco2)c1,"inconclusive: 35.5 µM [inhibitor, partial curve, poor fit]",
COc1ccccc1NC(=O)CN(c1ccc([N+](=O)[O-])cc1)S(=O)(=O)c1ccccc1,"inconclusive: 89.1 µM [inhibitor, single point]",
Cc1nc([N+](=O)[O-])c(C(=O)OCc2cccc(Br)c2)n1C,active: 50.1 µM,
Cc1cc(Cl)ccc1OCC(=O)Nc1nc(-c2cccnc2)cs1,inactive,
O=C(CCCc1nc(-c2ccccc2)no1)NCc1cccnc1,"inconclusive: 79.4 µM [inhibitor, single point]",
O=C(COc1ccc(Cl)cc1)Nc1ccc(C(=O)O)cc1NC(=O)COc1ccc(Cl)cc1,inactive,
COc1ccc2sc(NC(C)=O)nc2c1,,inconclusive: -63.4% [inhibitor]
CCNc1nc(NCC)n2c(SCc3ccc(F)cc3)nnc2n1,active: 10 µM,
Cc1ccc(C(=O)c2nc3c(n2O)CCCC3)cc1,"inconclusive: 79.4 µM [inhibitor, single point]",
CCOC(=O)COc1ccc(S(=O)(=O)NCCC2=CCCCC2)cc1,"inconclusive: 2 µM [inhibitor, full curve, poor fit]",
COCC(=O)N(C)c1nnc(-c2ccc([N+](=O)[O-])cc2)s1,inactive,
COc1ccc(OC)c2sc(NC(=O)c3ccc(S(=O)(=O)N4CCOCC4)cc3)nc12,"inconclusive: 1.41 µM [inhibitor, full curve, poor fit]",

Structure (SMILES),Potency,"activity, negative = inhibition"
Nc1cc(=O)[nH]c(SCC(=O)Nc2ncc(C(F)(F)F)cc2Cl)n1,inactive,
COc1ccc(CCNC(=O)c2cc(C3CC3)nc3c2cnn3C(C)C)cc1OC,"inconclusive: 12.6 µM [inhibitor, partial curve, poor fit]",
Cc1ccc(-c2csc(NC(=O)Cc3ccc(F)cc3)n2)o1,active: 10 µM,
CCOc1ccc(S(=O)(=O)Nc2cccc(-c3ccc(N4CCCC4)nn3)c2)cc1,"inconclusive: 10 µM [inhibitor, partial curve]",
CC1(C)Cc2c(c(N3CCOCC3)nc3sc(C(=O)Nc4ccc(Cl)cc4)c(N)c23)CO1,active: 10 µM,
Cc1c(NC(=O)Cn2nc(C(=O)O)c3ccccc3c2=O)c(=O)n(-c2ccccc2)n1C,"inconclusive: 39.8 µM [inhibitor, partial curve]",
[O-]/[N+](=C/c1ccc(F)cc1)c1ccc(Cl)cc1,active: 11.2 µM,
NC(=O)COc1ccc(/C=N\NC(=O)CC(=O)NCCc2ccccc2)cc1,,inactive: -4.3% [at 2.33 µM]
COc1ccc(C2c3c(oc4ccccc4c3=O)C(=O)N2c2ccccn2)cc1OC (stereo not given),"inconclusive: 50.1 µM [inhibitor, partial curve]",
CN(C)c1ncc2ncc(=O)n(C)c2n1,,inactive: 7.43% [at 12.7 µM]
Cc1ccc(OCCSc2nnc(-c3ccncc3)n2C)cc1,active: 39.8 µM,
COc1ccc(Nc2nc(-c3ccc4c(c3)NC(=O)CO4)cs2)cc1,active: 44.7 µM,
CC(C)OC(=O)c1nn2c(C(F)(F)F)cc(-c3ccco3)nc2c1Cl,"inconclusive: 39.8 µM [inhibitor, single point]",
CNC(=O)c1ccc(NC(=O)c2ccc3c(=O)n4c(nc3c2)CCC4)cc1,"inconclusive: 2.82 µM [inhibitor, partial curve, poor fit]",
CC(=O)c1ccc(S(=O)(=O)Nc2ccc(-c3ccc(N4CCCCC4)nn3)cc2)cc1,"inconclusive: 2 µM [inhibitor, partial curve, poor fit]",
Cc1ccccc1C(=O)NCC(=O)Nc1ccc(C)c(S(=O)(=O)N2CCCCCC2)c1,inactive,
O=C(c1cc(-c2cccs2)nn1-c1ccccc1)N1CCN(S(=O)(=O)c2ccccc2)CC1,"inconclusive: 56.2 µM [inhibitor, partial curve, poor fit]",
CCCCCCCCCCCCCC[n+]1ccc(C)cc1,"inconclusive: 3.16 µM [inhibitor, partial curve, poor fit]",
CCOc1cccc(OCCCNCCCOC)c1,"inconclusive: 28.2 µM [inhibitor, single point]",
N[C@@H](Cc1c[nH]c2ccc(O)cc12)C(=O)O,active: 22.4 µM and active: 8.91 µM and active: 8.44 µM,
C/C(=N\Nc1nc(C)cc(C)n1)c1ccc(N2CCOCC2)cc1,inactive,
Cc1ccc(-c2nc(SC(C)C(=O)N3CCOCC3)n[nH]2)cc1 (stereo not given),inactive,
